# Assay results: PubChem BioAssay (NCATS)
# Values joined by “and” are separate entries in the source; they are usually repeats but may differ in a detail not shown here. Equal values may be shown once. This is one part of the list. These are further read-outs of the screen, such as a control signal, another cell line or another target. No call is given for them. For some of these results: Most of these compounds were active or inconclusive in the main read-out, so they are no random draw. For some of these results: The note in brackets gives the kind of curve behind each potency; many fits are weak.
# Assays:
# [1] = qHTS Assay for Lipid Storage Modulators (AID 1519); details: Drosophila S3 cells, BODIPY lipid droplet/cell ratio, laser cytometry, cells loaded with oleic acid
# Outline: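 Cells seeded at 5,000 per well were treated with compounds over a concentration series and loaded with oleic acid (400 uM, as added). Lipid droplet fluorescence (488 nm excitation, 500-530 nm channel) was read by laser-scanning cytometry and normalized to 20 uM Triacsin C.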
# [2] = qHTS Assay for Modulators of Human Peripheral Myelin Protein 22 (PMP22) Expression/Activity (AID 1967); details: Cell-based PMP22 reporter, dual-color luciferase ratio
# Outline: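 Quantitative HTS in a mouse Schwann cell line expressing dual click beetle luciferases: Pmp22 promoter (green) and control EF-alpha promoter (red). After 24h treatment, corrected green/red signal ratio gave %Activity relative to untreated cells.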
# [3] = qHTS Validation Assay for Iinhibitors of HIV-1 Budding by Blocking the Interaction of PTAP/TSG101 (AID 485342); details: TSG101-PTAP binding, fluorescence polarization, 4-point titration; measured here: FITC channel readout
# Outline: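 Fluorescence anisotropy measured PTAP-Tsg101 interaction. Final concentrations were 10 uM protein domain and 50 nM labeled peptide, equilibrated 20 min at room temperature.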
# [4] = qHTS Validation Assay to Find Inhibitors of Chronic Active B-Cell Receptor Signaling (AID 485345); details: ABC-DLBCL cells, chronic BCR signaling reporter
# Outline: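 TMD8 ABC-DLBCL cells with dox-inducible green luciferase–IκBα fusion and red native luciferase; compounds 46 uM–3 nM, 4 h at 37C with doxycycline in 0.5% FBS IMDM. Green/red ratio normalized to basal and 10 uM MG-132.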
# [5] = Nrf2 qHTS screen for inhibitors: Validation (AID 493153); details: A549 ARE-Fluc reporter, 18-24 h; AC50: CellTiter-Fluor fluorescence read, measured here: cytotoxicity CellTiter-Fluor AC50; viability change: measured here: cytotoxicity max response
# Outline: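 Dose-response validation uses reporter A549 cells with firefly luciferase under an antioxidant response element. Compounds stay on cells 18-24 h at 37°C, and luminescence indicates Nrf2-driven transcription.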
# [6] = qHTS assay for small molecule antagonists of peroxisome proliferator-activated receptor delta signaling (AID 588535); details: HEK293T PPARd-UAS-bla, beta-lactamase FRET ratio, 18 h; 460 nm channel;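 also: cells co-treated with a PPAR-delta agonist as stimulator during compound exposure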
# Outline: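 GeneBLAzer PPAR-delta-UAS-bla HEK293T cells in medium with 2% charcoal/dextran FBS were preincubated 5 hrs at 37 C, then given compounds, incubated 18 hrs at 37 C, and read by CCF4 beta-lactamase fluorescence; IC50 from Hill fits.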
# [7] = S16 Schwann cell PMP22 intronic element beta-lactamase assay (AID 624044); details: S16 rat Schwann cells, PMP22 element beta-lactamase FRET, 24 h; measured here: 460 nm blue channel; also: nearly all actives have a fitted effect of over 15% in size
# Outline: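 Rat S16 Schwann cells with beta-Lac driven by a PMP22 intronic element, compound-treated 24 h at 37 °C. LiveBLAzer FRET B/G read: 460 nm normalized to potassium clavulanate vs DMSO; 535 nm FRET as viability; concentration-effect curves classified.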
# [8] = qHTS assay for small molecule antagonists of peroxisome proliferator-activated receptor gamma signaling (AID 588537); details: HEK293 PPARg-UAS-bla, beta-lactamase ratio, antagonist mode; measured here: W460 blue channel
# Outline: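 PPAR-gamma-UAS-bla HEK293 cells (3000/well, 1% charcoal/dextran-stripped FBS) were preincubated 6-6.5 h at 37 C, given titrated compounds, then stimulated with 50 nM rosiglitazone for 16 h. Beta-lactamase activity was read with CCF4 dye; IC50 came from Hill fits.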
# [9] = qHTS assay for small molecule agonists of retinoid X receptor alpha signaling (AID 588544); details: HEK293T RXRa-UAS-bla, beta-lactamase reporter, 18 h; 530 nm emission
# [10] = qHTS assay for small molecule antagonists of retinoid X receptor alpha signaling (AID 588546); details: HEK293T RXRa-UAS-bla, beta-lactamase ratio, antagonist mode; measured here: W530 green channel, cytotoxicity proxy;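 also: cells stimulated with 9-cis-retinoic acid as agonist; % is scaled to controls: 0 for no effect and ±100 for the full control effect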
# Outline: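 Beta-lactamase reporter inhibition, read as CCF4 fluorescence ratio (ex 405, em 460/530 nm) after 2 h at RT. HEK293T UAS-bla cells, 2500/well, were stimulated with 9-cis-RA at 500 or 100 nM final alongside test compound for 18 h at 37 C.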
# [11] = measured here: cell count channel max response
# [12] = measured here: lipid (BODIPY) channel AC50
# [13] = measured here: lipid channel max response
# [14] = measured here: red reporter channel AC50, EF-alpha promoter control reporter in MSC80 mouse Schwann cells
# [15] = measured here: CBG/CBR ratio read-out
# [16] = measured here: cell number channel AC50
# [17] = measured here: green reporter channel AC50, mouse Pmp22 promoter in mouse Schwann cells
# Tags tell the direction and shape of the fitted curve.
structure (smiles),measurement,setting,value
Cc1cc(C)c(/C=C2\C(=O)Nc3ccccc32)[nH]1,max response,[1]; [11],118%
same,AC50,[1]; [12],"7.94 µM [falling, full curve]"
same,max response,[1]; [13],-76.9%
same,AC50,[2]; [14],"33.8 µM [falling, partial curve]"
same,AC50,[3],"35.5 µM [falling, full curve]"
same,AC50,[4]; [15],"7.31 µM [falling, partial curve]"
same,AC50,[5],"23.1 µM [falling, partial curve, poor fit]"
same,viability change,[5],-22.3%
Cn1c(=O)[nH]c2ncn(C)c2c1=O,max response,[1]; [11],38%
same,AC50,[1]; [16],"0.0447 µM [falling, partial curve, poor fit]"
same,max response,[1]; [13],37.3%
same,AC50,[2]; [14],"84.9 µM [falling, single point]"
Cc1nc2ccccn2c(=O)c1CCN1CCC(C(=O)c2ccc(F)cc2)CC1,max response,[1]; [11],43.5%
same,AC50,[1]; [12],"2.82 µM [falling, full curve, poor fit]"
same,max response,[1]; [13],45.1%
same,AC50,[2]; [17],"75.7 µM [falling, partial curve]"
same,AC50,[2]; [14],"75.7 µM [falling, single point]"
CCCCC/C=C\CC(O)/C=C/c1cccc(CC(O)CCCCO)n1 (configuration not stated),max response,[1]; [11],52.7%
same,AC50,[1]; [16],"39.8 µM [rising, single point]"
same,max response,[1]; [13],52.6%
same,AC50,[2]; [14],"75.7 µM [falling, single point]"
same,AC50,[4]; [15],"16.4 µM [falling, single point]"
same,AC50,[4]; measured here: CBR control luciferase (viability counter),"23.1 µM [falling, single point]"
CC(C)(Oc1ccc(CCNC(=O)c2ccc(Cl)cc2)cc1)C(=O)O,max response,[1]; [11],25.3%
same,AC50,[1]; [12],"39.8 µM [rising, single point]"
same,max response,[1]; [13],36.6%
same,max response,[6],69.5%
CN(C)CC/C=C1\c2ccccc2COc2ccccc21,max response,[1]; [11],24.5%
same,AC50,[1]; [12],"35.5 µM [rising, single point]"
same,max response,[1]; [13],31.4%
same,AC50,[2]; [17],"84.9 µM [falling, single point]"
same,AC50,[2]; [14],"84.9 µM [falling, single point]"
COc1[nH]c2ccc(F)cc2c1C(=O)OCC1CCN(CCNS(C)(=O)=O)CC1,max response,[1]; [11],-6.88% and -36.5%
same,AC50,[1]; [12],"1.41 µM [falling, full curve, poor fit]"
same,max response,[1]; [13],8.12% and -38.9%
same,AC50,[2]; [14],"95.3 µM [falling, single point]"
COc1ccccc1N1CCN(CCCCNC(=O)c2ccc3ccccc3c2)CC1,max response,[1]; [11],56.3%
same,AC50,[1]; [16],"0.00447 µM [rising, full curve, poor fit]"
same,max response,[1]; [13],59.6%
same,AC50,[2]; [17],"42.6 µM [falling, full curve]"
same,AC50,[2]; [14],"37.9 µM [falling, partial curve]"
FC(F)(F)c1ccccc1-n1ccnc1,max response,[1]; [11],89.5% and 30.5%
same,AC50,[1]; [16],"4.47 µM [rising, partial curve]"
same,max response,[1]; [13],122% and 14.7%
same,AC50,[2]; [14],"95.3 µM [falling, single point]"
Cc1cc(C)c(NC(=O)C[C@H](CC(=O)O)c2cccc3ccccc23)c(C(=O)N2CCC3(CCCC3)CC2)c1,max response,[1]; [11],72%
same,AC50,[1]; [16],"39.8 µM [rising, partial curve, poor fit]"
same,max response,[1]; [13],74.7%
same,AC50,[2]; [14],"95.3 µM [falling, single point]"
same,AC50,[7],"7.94 µM [falling, partial curve, poor fit]"
CC(=O)OC/C=C(C)/C=C/C=C(C)/C=C/C1=C(C)CCCC1(C)C,max response,[1]; [11],19%
same,AC50,[1]; [12],"17.8 µM [rising, partial curve]"
same,max response,[1]; [13],30.4%
same,max response,[6],79.6%
same,AC50,[8],"50.1 µM [rising, single point]"
same,max response,[9],48.2% and 52.9%
same,max response,[10],23%
CNCCC(Oc1ccccc1OC)c1ccccc1 (configuration not stated),max response,[1]; [11],-13.8%
same,AC50,[1]; [16],"22.4 µM [falling, single point]"
same,max response,[1]; [13],-20.2%
same,AC50,[2]; [17],"67.5 µM [falling, partial curve]"
same,AC50,[2]; [14],"84.9 µM [falling, partial curve]"
COC(=O)c1c(-c2cc(OC)c(OC)c(OC)c2)c2ccc(OCc3ccccn3)cc2c(=O)n1-c1ccc(N)cc1,max response,[1]; [11],48.3%
same,AC50,[1]; [16],"11.2 µM [rising, partial curve, poor fit]"
same,max response,[1]; [13],42.9%
same,AC50,[2]; [17],"84.9 µM [falling, single point]"
same,AC50,[2]; [14],"95.3 µM [falling, single point]"
